According to publication PMC4336329 (PLoS ONE, 2015):
The campaign covered roughly 310,000 compounds. About 14,000 (4.5%) showed an effect of 50% or more. Effects have a minus sign here. The list shows a part of the results.

Target: human ether-à-go-go-related gene (hERG) potassium channel (human, UniProt Q12809)
Experiment: primary screen, population patch clamp on CHO cells stably expressing hERG
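Note: peak tail current of the secondary pulse compared with the same well before compound.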

Chain of human ether-à-go-go-related gene (hERG) potassium channel (Q12809 whole entry, looked up): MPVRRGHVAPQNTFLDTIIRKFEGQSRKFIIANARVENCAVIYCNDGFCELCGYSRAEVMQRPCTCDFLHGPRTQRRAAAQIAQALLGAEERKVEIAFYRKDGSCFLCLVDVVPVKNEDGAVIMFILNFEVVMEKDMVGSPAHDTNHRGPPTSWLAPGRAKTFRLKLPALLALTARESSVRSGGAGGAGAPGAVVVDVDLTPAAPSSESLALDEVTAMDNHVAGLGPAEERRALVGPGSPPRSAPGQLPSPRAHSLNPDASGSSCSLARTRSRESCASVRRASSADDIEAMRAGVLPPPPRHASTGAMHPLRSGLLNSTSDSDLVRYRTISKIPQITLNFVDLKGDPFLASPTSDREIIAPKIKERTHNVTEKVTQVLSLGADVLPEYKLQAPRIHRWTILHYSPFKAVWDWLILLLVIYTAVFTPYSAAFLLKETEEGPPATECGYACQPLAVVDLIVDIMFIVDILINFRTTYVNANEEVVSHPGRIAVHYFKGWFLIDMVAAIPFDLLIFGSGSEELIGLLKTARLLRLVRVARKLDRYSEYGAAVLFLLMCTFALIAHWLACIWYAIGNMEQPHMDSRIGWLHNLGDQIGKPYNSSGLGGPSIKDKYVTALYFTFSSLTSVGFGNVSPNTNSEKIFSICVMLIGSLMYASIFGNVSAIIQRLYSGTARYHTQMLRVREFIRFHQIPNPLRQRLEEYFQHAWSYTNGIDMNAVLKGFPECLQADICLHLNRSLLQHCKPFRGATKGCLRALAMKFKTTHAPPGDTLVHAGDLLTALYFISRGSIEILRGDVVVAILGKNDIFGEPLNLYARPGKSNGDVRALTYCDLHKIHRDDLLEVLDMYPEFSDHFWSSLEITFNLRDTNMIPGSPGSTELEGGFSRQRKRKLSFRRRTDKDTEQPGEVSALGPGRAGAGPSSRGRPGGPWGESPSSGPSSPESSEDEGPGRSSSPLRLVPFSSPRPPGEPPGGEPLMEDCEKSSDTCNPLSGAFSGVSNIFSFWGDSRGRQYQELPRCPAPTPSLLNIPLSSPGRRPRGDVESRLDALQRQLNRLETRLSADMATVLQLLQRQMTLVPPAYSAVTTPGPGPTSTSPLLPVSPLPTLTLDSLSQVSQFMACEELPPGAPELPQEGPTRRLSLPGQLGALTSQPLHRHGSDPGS

SMILES	hERG current change (%, negative = inhibition) at 10uM
C=CCN(c1ccc(C(=O)Nc2cccc([N+](=O)[O-])c2)cc1)S(C)(=O)=O	9.42%
Cc1nn(CC(=O)NCc2ccccc2)c(=O)c2ccccc12	-13.2%
COc1ccc(-c2nc3c(c(SCC(=O)N4CCCC4)n2)COC(C)(C)C3)cc1	-16.9%
CN(C(=O)CC1C(=O)NCCN1Cc1cccc(F)c1F)C1CC(C)(C)NC(C)(C)C1 (centres unmarked)	26.1%
O=C(Nc1ccccc1)Nc1ccc(Cl)nc1Cl	11.6%
O=C(CSc1nc(C(F)(F)F)cc(=O)[nH]1)N1CCCC1	19%
CC(C)OCCCNC(=O)c1cc2c(=O)n(C)c3ccccc3c2n1C	-1.46%
NS(=O)(=O)c1ccc2nc(NC(=O)c3ccc4c(c3)OCCO4)sc2c1	22%
COC(=O)C1=C(C)NC(=O)/C1=C/c1ccc(CNS(=O)(=O)c2ccc(C)cc2)o1	15%
CN(C)CCNc1nc2c(c(=O)[nH]c(=O)n2C)n1CCCc1ccccc1	-29.1%
Cc1ccc2c(c1)[nH]c1c(=O)n(Cc3ccco3)cnc12	-0.956%
COc1ccc(S(=O)(=O)Nc2ccncc2)c(C)c1C	14.9%
CC(C)(C)CN1C(N)=NC[C@@H]1c1ccccc1	19.1%
CCCCCCN=C(CC)c1c(O)n(CCCC)c(=O)[nH]c1=O	-55.4%
CCN(CC)CCCNC(=O)c1c(O)c2c([nH]c1=O)CCCC2	-16.9%
Cc1cc(C(=O)C[N+]23CCN(CC2)CC3)c(C)n1-c1ccc(Br)cc1.[Cl-]	12.1%
COc1cc(CCC(=O)OCC(=O)Nc2c(Cl)cccc2Cl)cc(OC)c1OC	17.2%
COc1ccccc1NC(=O)Nc1ccc2c(c1)nnn2C	-0.0409%
O=C(NP(=O)(N1CCOCC1)N1CCOCC1)C1=C(N2CCOCC2)/C(=C\c2ccccc2)CC1	18.1%
COc1ccc(C)cc1NC(=O)C(=O)c1cn(CC(=O)N2CCCC2)c2ccccc12	11.4%
O=C(CCn1c(=O)[nH]c2ccsc2c1=O)NCc1ccc(F)cc1	1.7%
O=C(c1ccc(Cl)c(S(=O)(=O)N2CCOCC2)c1)N1CCOCC1	12%
S=c1[nH]nc(C2CCCCC2)n1/N=C/c1cccc(Cl)c1Cl	10.3%

SMILES	hERG current change (%, negative = inhibition) at 10uM
CSCC(=O)N1CCCC(N2CCN(c3ccc(F)cc3)CC2)C1 (centres unmarked)	-22.9%
O=C(NCCCn1ccnc1)c1cc(-c2cccs2)on1	-24.1%
COc1ccc(CCNc2oc(COc3ccc(F)cc3)nc2C#N)cc1	2.97%
Cc1ccc(NC(=O)Cc2ccc(F)cc2)cc1	7.89%
CC(C)C(OC(=O)c1cccs1)C(=O)NCc1ccco1 (centres unmarked)	6.28%
CCCS(=O)(=O)NCc1ccc2c(c1)cc(C)n2C	2.27%
COC(=O)c1ccccc1NC(=O)NCc1ccccc1	-3.24%
O=[N+]([O-])c1ccccc1N/N=C1\CC2CC=CC12 (centres unmarked)	46.5%
Cc1csc(NC(=O)CSc2nnc(C)n2Cc2ccco2)n1	-1.85%
CN(C)S(=O)(=O)c1ccc(C(=O)NC(=O)CSc2ccccc2)cc1	4.06%
CCn1c(C(=O)N2CCC(C(=O)NCc3cccs3)CC2)cc2sccc21	-63%
CN(C(=O)c1cccnc1)c1nnc(-c2ccccn2)s1	1.36%
COc1ccc(-c2cc(OC)c3c(C)oc(C)c3c(=O)c2)cc1OC	2.75%
O=C(NCCC(=O)N1CCN(c2ccccn2)CC1)c1ccc(Br)cc1	-42.5%
O=C(COC(=O)CCC(=O)c1ccc(Cl)cc1)NCCc1ccccc1	18.3%
CCCNC(=O)NNC(=O)c1ccc(F)cc1	-2.15%
O=C(CN1CCN(c2ccc(F)cc2)CC1)Nc1ccc2c(c1)OCCO2	4%
COC(=O)C1=C(N)OC2=C(C(=O)CCC2)C1c1cccs1 (centres unmarked)	5.85%
CCN(CC)S(=O)(=O)c1ccc(NS(=O)(=O)c2ccc(F)cc2)cc1	5.42%
NC(=O)C1CCN(c2cc(N3CCOCC3)ccc2[N+](=O)[O-])CC1	19.5%
Cc1cccc(-n2c(O)c(C=Nc3cc(O)ccc3C)c3ccccc3c2=O)n1	21.3%
COCCCNC(=O)C(Cc1ccccc1)NS(=O)(=O)c1ccc2c(c1)c(=O)n(C)c(=O)n2C (centres unmarked)	-0.155%
C[C@H](NC(N)=O)C(=O)OCC(=O)NCc1cccs1	1.64%

SMILES	hERG current change (%, negative = inhibition) at 10uM
O=C1C=C(c2ccc(F)cc2OCc2ccccc2)C[C@@H](c2ccc3c(c2)OCO3)C1	23.8%
Cc1cc(NC(=O)CCN2C(=O)C3C4CCC(C4)C3C2=O)cc(C)c1Br (centres unmarked)	-44.9%
CCN1C(=O)[C@H]2[C@@H](c3ccc(-c4ccc(F)cc4)c(OC)c3)N[C@@](CC(C)C)(C(=O)OC)[C@H]2C1=O.O=C(O)C(F)(F)F	5.93%
COc1ccc(NC(=O)c2ccc(-c3ccc(C(C)=O)cc3)o2)cn1	5.98%
Cc1ccc(C(=O)O)cc1NS(=O)(=O)c1ccc2ccccc2c1	12.7%
O=C(/C=C/c1ccc(Br)cc1)Nc1ccc(S(=O)(=O)Nc2ncccn2)cc1	32.9%
Cc1cc(OCC(=O)N2CCN(c3ccccn3)CC2)c(C)cc1Br	6.09%
Cc1ccc(-n2cc(CNCCn3nc(C)cc3C)c(-c3ccc(F)cc3)n2)cc1	-50.8%
O=C1NS(=O)c2cc([N+](=O)[O-])cc([N+](=O)[O-])c21 (centres unmarked)	20.8%
O=C(CCNc1cccc(C(F)(F)F)c1)c1ccco1	-0.255%
C=CCc1ccccc1OCC(=O)NNC(=S)NCc1ccccc1	-0.308%
Cc1cc(C)c2nc(SCC(=O)NCC3CCCO3)c(C#N)cc2c1 (centres unmarked)	7.18%
COC(=O)CSC1=NS(=O)(=O)c2ccccc21	6.01%
Cn1c(=O)c2c(nc(NCc3cccnc3)n2Cc2ccccc2Cl)n(C)c1=O	-4.86%
Cc1ccc(OCCOc2cccc(C=C3C(=O)NC(=O)NC3=O)c2)c(C)c1	7.36%
COC(=O)c1c(C)n(Cc2ccco2)c2ccc(O)cc12	-11.6%
Cc1occc1C(=O)Nc1ccc2c(c1)OCO2	-7.71%
COc1cc(OC)c(C(=O)OC(C)C(=O)Nc2cc(C(F)(F)F)ccc2Cl)cc1OC (centres unmarked)	-2.43%
Cc1cc2occ(CC(=O)N(C)CC(=O)Nc3c(C)cccc3C)c2cc1C	9.34%
CCc1cc(C(=O)N2CCN(c3ccccn3)CC2)sc1C	-3.12%
COc1ccc(C(=O)NC2CC2)cc1OC1CCN(Cc2ccccc2F)CC1	-78%
C/C(=N/NS(=O)(=O)c1cc(C)ccc1C)c1c[nH]c2ccccc12	14.2%
O=C(Nc1cc(Cl)ccc1O)c1cc(-c2ccco2)on1	8.36%

SMILES	hERG current change (%, negative = inhibition) at 10uM
O=C(Nc1ccc2c(c1)OCO2)c1cc(-c2ccc(O)cc2)on1	22.4%
COc1cccc2oc3cc(C#Cc4ccccn4)ccc3c(=O)c12	-13.1%
CCOC(=O)c1nnc(-c2cccs2)nc1Oc1ccc(Cl)cc1	7.09%
CC1CCC(CN2CCN=C2Nc2ccccc2)CC1 (centres unmarked)	-14.7%
CCCCC(CCC(=O)Nc1ccccc1C(=O)OCC)C(=O)O (centres unmarked)	-3.09%
COCCN(CCOC)S(=O)(=O)c1ccc(C(=O)Nc2nnc(C)o2)cc1	7.79%
COc1ccccc1C(=O)N1CCN(C(=O)c2ccncc2)CC1	-2.76%
CN1CCN(C(=O)c2ccc3c(Cl)c4c(nc3c2)CCCC4)CC1	-9.43%
Cc1cccc(/C=N/NC(=O)c2c(-c3ccccc3)noc2C)c1O	7.29%
Cc1ccc(C)c(N=Cc2c(O)c3ccccc3oc2=O)c1	16.3%
C/C(=N/NC(=O)c1ccc(NC(=O)c2ccc(F)cc2)cc1)c1ccccc1	-2.67%
Cc1cccc(NC(=O)CSc2c3c(nc4ccccc24)CCC3)n1	-15.4%
CCOC(=O)C1CCN(CC(=O)Nc2cc(S(=O)(=O)N3CCOCC3)ccc2C)CC1.O=C(O)C(=O)O	-8.57%
Cc1ccc(C(=O)N[C@H](C(=O)N2CCN(c3ccccc3F)CC2)C(C)C)cc1	-8.57%
CCOc1cc(N2CCOCC2)c(OCC)cc1NC(=O)C(C)(C)C	17.4%
Cc1ccc(S(=O)(=O)CCc2nnc(NC(=O)c3ccccn3)s2)cc1	-1.45%
Cc1nc(NC(=O)c2ccccc2)sc1C	7.28%
CCOc1ccccc1C(=O)NC(C(=O)NCc1ccccc1OC)C(C)C (centres unmarked)	-35.3%
O=c1/c(=C/c2ccco2)sc2nc(-c3ccccc3Br)nn12	12.7%
O=C(c1ccco1)N1CCN(S(=O)(=O)c2cccc([N+](=O)[O-])c2)CC1	-20.7%
